From PubChem BioAssay AID264 (DTP/NCI, 2004) come the findings set out here.

The test concerns nude mice, LX-1 lung xenograft intrarenal, tumor weight T/C. As to the kind of experiment: NCI In Vivo Anticancer Drug Screen. Data for tumor model Human Lung LX-1 Xenograft (intrarenal inoculation) in NU/NU Swiss (nude) mice. The following applies: endpoint: mean tumor weight change, higher = larger tumour. On the procedure: The antitumor activity of compounds was measured in mice bearing transplantable tumors. Survival or tumor size were measured and the results are expressed as the measurement made in the treated group (T) divided by the measurement made in the vehicle treated control group (C). The tumor model used in this assay is Human Lung LX-1 Xenograft (intrarenal inoculation) in NU/NU Swiss (nude) mice
(A xenograft is tissue or cells of one species grown in another, often human tumour cells in immunodeficient mice.)

Where [1] appears, read: dose: 25.0 mg/kg/injection, schedule: Q01DX010 (sc), vehicle: saline with Tween-80.
The mark [2] stands for this setting: dose: 100.0 mg/kg/injection, schedule: Q04DX003 (sc), vehicle: Klucel (hydroxypropylcellulose) (HPC).
Setting [3] is: dose: 8.0 mg/kg/injection, schedule: Q01DX010 (sc), vehicle: saline.

Results filed as inconclusive are left out. Not every entry of the source has a single result; some have several. The other results are left out here. An entry can have further records. The values listed for one entry are repeats in other runs, samples, wells, individuals or studies.

With `CCc1ncnc2cc(OCC3CO3)c(OC)cc12` (stereo not drawn), for the setting “dose: 100.0 mg/kg/injection, schedule: Q04DX003 (sc), vehicle: suspension in saline”, the T/C was 56 % of control and 101 % of control.

`O=CC(NC(=O)N(CCCl)N=O)C(O)C(O)C(O)CO` (stereo not drawn): the T/C (dose: 3.0 mg/kg/injection, schedule: Q01DX010 (sc), vehicle: Klucel (hydroxypropylcellulose) (HPC)) was 21 % of control and 77 % of control.

For the molecule `CC[N+](CC)(CC)CC`, the T/C was 54 % of control and 108 % of control (dose: 3.0 mg/kg/injection, schedule: Q01DX010 (sc), vehicle: saline with Tween-80); 77 % of control and 108 % of control (dose: 6.0 mg/kg/injection, schedule: Q01DX010 (sc), vehicle: saline with Tween-80).

`O=C1C2CC=CCC2C(=O)N1SC(Cl)(Cl)Cl` (stereo not drawn): under setting [1], the T/C was 67 % of control and 115 % of control.

Consider `COc1cc2cc(c1Cl)N(C)C(=O)CC(OC(=O)C(C)C)C1(C)OC1C(C)C1CC(O)(NC(=O)O1)C(OC)/C=C/C=C(C)C2` (stereo not drawn), for which the T/C (dose: 25.0 micrograms/kg/injection, schedule: Q01DX010 (sc), vehicle: saline + alcohol) is 79 % of control and 121 % of control; the T/C (dose: 50.0 micrograms/kg/injection, schedule: Q01DX010 (sc), vehicle: saline + alcohol) was 25 % of control, 53 % of control, 104 % of control.

`CC(=O)c1c(O)c(C)c(O)c2c1OC1=CC(=O)C(C(C)=O)C(=O)C12C` (stereo not drawn): the T/C (dose: 100.0 mg/kg/injection, schedule: Q01DX010 (sc), vehicle: sodium bicarbonate) is 36 % of control and 284 % of control.

For the molecule `c1cc(NC2CCCCC2)ccc1CN1CCOCC1`, the T/C is 69 % of control and 159 % of control (dose: 200.0 mg/kg/injection, schedule: Q01DX010 (sc), vehicle: saline + Tween-80 + alcohol); 122 % of control and 173 % of control (dose: 400.0 mg/kg/injection, schedule: Q01DX010 (sc), vehicle: saline + Tween-80 + alcohol).

On to `O=C(O)C1(C(=O)O)CCC1.[NH2-].[NH2-].[Pt+2]`, for which the T/C (dose: 50.0 mg/kg/injection, schedule: Q01DX010 (sc), vehicle: dextrose) was 27 % of control and 58 % of control.

For the molecule `COC12C(COC(N)=O)C3=C(C(=O)C(C)=C(N)C3=O)N1CC1C2N1C` (stereo not drawn), the T/C (dose: 4.0 mg/kg/injection, schedule: Q01DX010 (sc), vehicle: saline) is 17 % of control and 43 % of control.

For `O=NN(CCCl)C(=O)NC1CCCCC1`, the T/C is 64 % of control and 109 % of control (dose: 16.0 mg/kg/injection, schedule: Q04DX003 (sc), vehicle: carboxymethylcellulose (CMC)); 16 % of control and 57 % of control (dose: 25.0 mg/kg/injection, schedule: Q04DX003 (sc), vehicle: Klucel (hydroxypropylcellulose) (HPC)); -100 % of control and 63 % of control under setting [2].

As to `c1ccc([P+](c2ccccc2)(c2ccccc2)c2ccccc2)cc1`, for the setting “dose: 20.0 mg/kg/injection, schedule: Q04DX003 (sc), vehicle: saline”, the T/C was 48 % of control and 117 % of control.

For the molecule `COc1ccc(S(=O)(=O)N=N/C=C2\C=CC=CN2O)cc1OC`, the T/C (dose: 300.0 mg/kg/injection, schedule: Q04DX003 (sc), vehicle: saline with Tween-80) is 38 % of control and 120 % of control.

As for `[N-]=[N+]=CC(=O)CCC(N)C(=O)O` (stereo not drawn), the T/C (dose: 0.1 mg/kg/injection, schedule: Q01DX010 (sc), vehicle: saline) is 28 % of control and 76 % of control; the T/C (dose: 0.2 mg/kg/injection, schedule: Q01DX010 (sc), vehicle: saline) is 39 % of control and 65 % of control.

For `CC(C)NC(=O)OCc1c(COC(=O)NC(C)C)c(-c2ccc(Cl)c(Cl)c2)n2c1CCC2`, the T/C reads like this: (dose: 50.0 mg/kg/injection, schedule: Q01DX010 (sc), vehicle: distilled water + Tween-80) 34 % of control and 173 % of control; (dose: 800.0 mg/kg/injection, schedule: Q01DX010 (sc), vehicle: distilled water + Tween-80) 16 % of control, 36 % of control, 47 % of control.

As to `CO[C@H](C(=O)[C@@H](O)[C@@H](C)O)[C@@H]1Cc2cc3cc(OC4CC(OC5CC(O)C(O)C(C)O5)C(O)C(C)O4)c(C)c(O)c3c(O)c2C(=O)[C@H]1OC1CC(OC2CC(OC3CC(C)(O)C(O)C(C)O3)C(O)C(C)O2)C(O)C(C)O1` (stereo partly drawn), the T/C was 77 % of control and 113 % of control (dose: 0.5 mg/kg/injection, schedule: Q01DX010 (sc), vehicle: saline); -92 % of control and 8 % of control (dose: 1.0 mg/kg/injection, schedule: Q01DX010 (sc), vehicle: saline).

`CC1CN1P1(N2CC2C)=NP(N2CC2C)(N2CC2C)=NP(N2CC2C)(N2CC2C)=N1` (stereo not drawn): the T/C (dose: 25.0 mg/kg/injection, schedule: Q01DX010 (sc), vehicle: saline) is 48 % of control, 64 % of control, 109 % of control.

As for `C1OC1CN1CCN(CC2CO2)CC1` (stereo not drawn), the T/C under setting [3] was 32 % of control and 79 % of control.

Take `COc1cccc2c1C(=O)c1c(O)c3c(c(O)c1C2=O)CC(O)(/C(C)=N/NC(=O)CCC(=O)N/N=C(\C)C1(O)Cc2c(O)c4c(c(O)c2C(OC2CC(N)C(O)C(C)O2)C1)C(=O)c1c(OC)cccc1C4=O)CC3OC1CC(N)C(O)C(C)O1` (stereo not drawn): the T/C (dose: 25.0 mg/kg/injection, schedule: Q01DX010 (sc), vehicle: water) was 8 % of control and 34 % of control.

Regarding `COc1cccc2c1C(=O)c1c(O)c3c(c(O)c1C2=O)C[C@@](O)(/C(C)=N/NC(=O)c1ccc(Cl)cc1)C[C@@H]3OC1CC(N)C(O)C(C)O1` (stereo partly drawn), the T/C runs as follows: (dose: 12.0 mg/kg/injection, schedule: Q04DX003 (sc), vehicle: water) 18 % of control and 227 % of control; (dose: 24.0 mg/kg/injection, schedule: Q04DX003 (sc), vehicle: water) 19 % of control and 87 % of control; (dose: 48.0 mg/kg/injection, schedule: Q04DX003 (sc), vehicle: water) 3 % of control, 87 % of control, 224 % of control.

Consider `OCCOCC(F)(F)F`, for which the T/C is listed as 83 % of control, 90 % of control, 111 % of control (dose: 1200.0 mg/kg/injection, schedule: Q04DX003 (sc), vehicle: saline) and 4 % of control, 50 % of control, 101 % of control (dose: 2400.0 mg/kg/injection, schedule: Q04DX003 (sc), vehicle: saline).

Take `CNC(=O)OCc1c(COC(=O)NC)c(C)n(-c2ccc(OC)cc2)c1C`: the T/C reads like this: (dose: 100.0 mg/kg/injection, schedule: Q01DX010 (sc), vehicle: Klucel (hydroxypropylcellulose) (HPC)) 2 % of control, 32 % of control, 58 % of control; under setting [2], 43 % of control and 94 % of control; (dose: 200.0 mg/kg/injection, schedule: Q01DX010 (sc), vehicle: Klucel (hydroxypropylcellulose) (HPC)) 1 % of control, 3 % of control, 32 % of control; (dose: 200.0 mg/kg/injection, schedule: Q04DX003 (sc), vehicle: Klucel (hydroxypropylcellulose) (HPC)) 25 % of control and 102 % of control; (dose: 400.0 mg/kg/injection, schedule: Q01DX010 (sc), vehicle: Klucel (hydroxypropylcellulose) (HPC)) -59 % of control and 60 % of control; (dose: 400.0 mg/kg/injection, schedule: Q04DX003 (sc), vehicle: Klucel (hydroxypropylcellulose) (HPC)) 44 % of control and 76 % of control.

As to `CCC1CC2CN(CCc3c([nH]c4ccccc34)C(C(=O)OC)(c3cc4c(cc3OC)N(C)C3C(O)(C(=O)OC)C(OC(C)=O)C5(CC)C=CCN6CCC43C65)C2)C1` (stereo not drawn), the T/C was 53 % of control and 116 % of control (dose: 2.0 mg/kg/injection, schedule: Q04DX003 (sc), vehicle: saline); 12 % of control and 45 % of control (dose: 8.0 mg/kg/injection, schedule: Q04DX003 (sc), vehicle: saline).

`COC1OC(CO)C(O)C(NC(=O)N(C)N=O)C1O` (stereo not drawn): the T/C by setting is: (dose: 225.0 mg/kg/injection, schedule: Q04DX003 (sc), vehicle: saline) -80 % of control, 3 % of control, 8 % of control; (dose: 450.0 mg/kg/injection, schedule: Q04DX003 (sc), vehicle: saline) -89 % of control, 1 % of control, 8 % of control.

As for `CCC(C(=O)O)C(=O)O.[NH2-].[NH2-].[Pt+2]`, the T/C (dose: 75.0 mg/kg/injection, schedule: Q04DX003 (sc), vehicle: saline) is 64 % of control and 94 % of control; the T/C (dose: 150.0 mg/kg/injection, schedule: Q04DX003 (sc), vehicle: saline) was 19 % of control and 69 % of control.

On to `S=C=NCCc1ccccc1`, for which the T/C under setting [1] was 39 % of control, 73 % of control, 83 % of control; the T/C (dose: 50.0 mg/kg/injection, schedule: Q01DX010 (sc), vehicle: saline with Tween-80) is listed as 26 % of control, 99 % of control, 110 % of control; the T/C (dose: 100.0 mg/kg/injection, schedule: Q01DX010 (sc), vehicle: saline with Tween-80) is reported as 5 % of control, 59 % of control, 103 % of control.

Regarding `COc1cc2c(cc1O)N=C[C@@H]1CCC(O)N1C2=O` (mixture of isomers), the T/C was -14 % of control, 65 % of control, 210 % of control under setting [3]; 76 % of control and 152 % of control (dose: 16.0 mg/kg/injection, schedule: Q01DX010 (sc), vehicle: saline).
